Assay results: the supplement of paper PMC3656093
± gives the standard deviation of the averaged measurements. The full ranking holds about 1,900 compounds; the median of “CD40L-induced NF-kB luciferase activity, plate-corrected, relative to DMSO (0) and IKK inhibitor VII (-100) controls” is about 0.032, and the lowest 2% start at about -26. The list shows a part of the results.

Each molecule was assayed on BL2-NFkB-Luc (assay: CD40L-induced NF-kB luciferase activity, plate-corrected, relative to DMSO (0) and IKK inhibitor VII (-100) controls (% normalized activity); higher = more NF-kB reporter activity (less inhibition)). Conditions: 9.4 µM; stimulus: tCD40L 64 ng/ml; 4.5 h.
Procedure: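 BL2 B cells with a stable NF-kB response-element luciferase reporter (BL2-NFkB-Luc), 384-well. Cells were pre-incubated with compound at 9.4 uM for 1 h at 37 C, then stimulated with 64 ng/ml trimerized CD40L for 4.5 h; luciferase was read with Steady-Glo. Signal was normalised per plate in Genedata (median DMSO neutral control = 0, median IKK inhibitor VII at 50 uM = -100) with Assay Median plate-pattern correction; duplicate plates.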

SMILES	CD40L-induced NF-kB luciferase activity
Cc1nc(NCc2ccco2)c(C#N)c2c1COC(C)(C)C2	-5.81 ± 6
CN(C)C(=O)CCCCCCCCC(=O)N(C)C	-0.277 ± 1.3
O=S(=O)(CCc1nc2ccccc2[nH]1)c1ccc(Cl)cc1	-12.2 ± 1.3
CC(C)Oc1cccc(C(=O)N2CCCC2)c1	-0.9 ± 2.4
CC(C)Cc1ccc(C(C)C(=O)O)cc1 (centres undefined)	2.3 ± 5
CC(=O)NC(C(=O)NCC(N)=O)C(C)C (centres undefined)	1.19 ± 2.5
O=C1CN(O)C=C2N=c3ccccc3=C2N1c1ccc([N+](=O)[O-])cc1	0.0767 ± 1.2
COCCc1ccc(OCC(O)CNC(C)C)cc1 (centres undefined)	-6.81 ± 1.3
CC(C)(C)NCC(O)COc1cccc2c1C[C@H](O)[C@H](O)C2 (some centres undefined)	-5.07 ± 1.9
Cc1cc(C)c2c(CCl)cc(=O)oc2c1	2.87 ± 1.8
Cc1coc2c1c(C)cc1oc(=O)c(Cc3ccccc3)c(C)c12	1.05 ± 2.4
Cc1ccc2nc3c(cc(C(=O)NCC4CCCO4)c(=N)n3CCCOC(C)C)c(=O)n2c1 (centres undefined)	4.67 ± 4
COc1cc(C(=O)CCN2CCC(c3ccccc3)C2)cc(OC)c1OC (centres undefined)	-7.8 ± 0.22
Cn1c([N+](=O)[O-])cnc1COC(N)=O	-1.24 ± 5.2
CCC1CCc2c(sc(NC(=O)c3cccnc3)c2C(N)=O)C1 (centres undefined)	25.2 ± 6.5
Fc1ccccc1CNCCC(Cc1ccccc1)c1ccc2c(c1)OCO2 (centres undefined)	-0.335 ± 0.92
COc1ccc(C(=O)Nc2ccc(OC)c([N+](=O)[O-])c2)cc1Br	1.1 ± 2.5
Cc1ccccc1-c1coc2cc(O)ccc2c1=O	4.65 ± 2.2
CCOC(=O)C(=Cc1ccccc1OC)C(=O)OCC	-29 ± 6.1
COc1cc(C2Nc3ccccc3NC3=C2C(=O)CC(c2ccc(OC)c(OC)c2)C3)ccc1O (centres undefined)	0.269 ± 0.21
COC(=O)c1ccc(COc2ccc3c(C)c(C)c(=O)oc3c2C)o1	-0.554 ± 5
COc1ccc(C2C(C(=O)c3ccco3)=C(O)C(=O)N2CC2CCCO2)cc1 (centres undefined)	2.98 ± 4.2
Cc1cccc(C2=N/C(=C\c3cccnc3)C(=O)O2)c1	-3.64 ± 9.2

SMILES	CD40L-induced NF-kB luciferase activity
Nc1cc(-c2ccncc2)c[nH]c1=O	-8.44 ± 1.2
CCOC(=O)c1cc2c(nc1N)CC(C)(CC)OC2 (centres undefined)	44.2 ± 5.9
O=C(CN1C(=O)C2CCc3[nH]c4ccccc4c3C2C1=O)N1CCCC1 (centres undefined)	0.555 ± 7.7
OC(CCN1CCCCC1)(c1ccccc1)C1CCCCC1 (centres undefined)	1.3 ± 1.7
COc1ccc2c(c1)CC[C@@H]1[C@@H]2CC[C@]2(C)C(=O)CC[C@@H]12	-0.108 ± 2.2
Cc1cccc(Oc2coc3cc(OC(=O)c4cncc(Br)c4)ccc3c2=O)c1	15 ± 3.7
COc1ccc2c(CCNC(=O)c3ccc([N+](=O)[O-])cc3)c[nH]c2c1	-3.48 ± 6.8
CCNC(=O)C(Cc1ccccc1)NC(=O)OCc1ccccc1 (centres undefined)	4.35 ± 11
O=C1OC(=O)C2C1[C@@H]1CC[C@H]2O1 (some centres undefined)	-3.42 ± 0.2
C=C1C2(C(=O)Nc3ccc(SC(F)F)cc3)CCC(C2)C1(C)C (centres undefined)	1.47 ± 2.7
CC[N+]1(CC)CC2=Cc3ccccc3CC2C1 (centres undefined)	-4.39 ± 2.2
COc1ccccc1Oc1c(C)oc2c(CN3CCN(CCO)CC3)c(O)ccc2c1=O	-0.82 ± 6.9
COc1ccc(CNC(=O)C2CCCN2C)cc1OC (centres undefined)	-2.11 ± 1.2
COc1ccc(OC)c(NC2=C(Cl)C(=O)N(Cc3ccccc3)C2=O)c1	2.94 ± 3.3
OCCOCCN1CCN(C(c2ccccc2)c2ccc(Cl)cc2)CC1 (centres undefined)	-2.13 ± 1.9
C[C@]12CCC(=O)C[C@@H]1CC[C@@H]1[C@@H]2CC[C@]2(C)C=CC[C@@H]12	0.624 ± 2.1
COc1ccc(CNC(=O)c2cc3c(=O)n4ccccc4nc3n(Cc3cccnc3)c2=N)cc1	4.715 ± 0.016
CCCC(=O)Nc1ccccc1NC(C)=O	7.77 ± 2.6
CC(=NN1CCN(Cc2cccc3ccccc23)CC1)c1cccnc1	0.754 ± 2.2
CCc1cccc2c3c([nH]c12)C(CC)(CC(=O)O)OCC3 (centres undefined)	3.84 ± 0.98
Cc1oc2c(C)c3oc(=O)c4c(c3cc2c1C)CCCC4	0.564 ± 2.2
CCCCC(=O)O[C@]1(C(=O)CO)CC[C@H]2[C@@H]3CCC4=CC(=O)CC[C@]4(C)[C@H]3[C@@H](O)C[C@@]21C	-43.1 ± 20
CC(C)CCc1noc(CN2CCC(CCN3CCCC3=O)CC2)n1	6.6 ± 0.72

SMILES	CD40L-induced NF-kB luciferase activity
CC1(C)c2ccccc2N2CC(=O)NC21/C=C/c1ccco1 (centres undefined)	-6.94 ± 4.5
COC(=O)c1cc(-c2ccc(C)o2)nc2ccccc12	-2.83 ± 6
CN(C)CC/C=C1\c2ccccc2COc2ccccc21	1.31 ± 3.8
CCOC(=O)C1(Cc2cccc(Cl)c2)CCCN(C2CCN(C(C)=O)CC2)C1 (centres undefined)	-4.32 ± 1.5
CC(C)NS(=O)(=O)c1ccc(OCC(=O)Nc2cccc(F)c2)cc1	-11.2 ± 15
COC(=O)c1ccc(OCCCCN2CC(C)OC(C)C2)cc1 (centres undefined)	-3.27 ± 2.1
Cc1ccc2c(c1)C1OCCC1C1N2C(=O)C2C(C(=O)O)C3C=CC21O3 (centres undefined)	1.09 ± 0.44
O=C(Nc1ccc(F)c([N+](=O)[O-])c1)c1ccc2c(c1)OCCO2	29.4 ± 0.63
CCC(=O)Nc1ccc(C(=O)N2CCN(C(=O)c3ccco3)CC2)cc1	-9.98 ± 0.32
CC(C)=CCC/C(C)=C/CC/C(C)=C/CC/C(C)=C/CC1=C(C)C(=O)c2ccccc2C1=O	-9.849 ± 0.051
Cc1ccc2c(c1)C1(C(=O)N2)N2CCCC2C(C(=O)c2ccc3ccccc3c2)C12C(=O)Nc1ccccc12 (centres undefined)	41.8 ± 2.5
C[C@]12CC[C@@H]3c4ccc(O)cc4CC[C@H]3[C@@H]1C[C@@H](O)[C@@H]2O[C@@H]1O[C@H](C(=O)O)[C@@H](O)[C@H](O)[C@H]1O	-1.76 ± 2.4
O=C(Nc1ccc(N2CCOCC2)cc1)c1ccc(-c2ccccc2[N+](=O)[O-])o1	17.3 ± 0.45
CCOC(=O)[C@H](CCc1ccccc1)N[C@@H](C)C(=O)N1CCC[C@H]1C(=O)O	3 ± 0.37
O=C(OCCNC(=O)c1ccc2ccccc2n1)c1ccc(F)cc1	-1.56 ± 4
O=C(c1ccc(Cl)cc1)C1CCCN(Cc2ccc(Oc3ncccn3)cc2)C1 (centres undefined)	0.281 ± 8.4
CC12CC(c3ccccc3O1)C(C(=O)N1CCOCC1)C(=O)N2 (centres undefined)	-5.76 ± 3.6
CC1=NN(C(=O)c2ccc(Br)cc2)C(O)(c2ccccc2)C1 (centres undefined)	1.83 ± 0.89
COc1cc(NC(=S)NN2CCN(C)CC2)cc(OC)c1OC	-2.21 ± 1.4
CCC(C)NCCOCCOc1ccc(Cl)cc1Br (centres undefined)	2.58 ± 2.4
c1ccc2[nH]c(-c3cscn3)nc2c1	39.3 ± 4
CN1[C@@H](CC(=O)c2ccccc2)CCC[C@H]1C[C@H](O)c1ccccc1	-3.85 ± 2.5
C#CCN1C(=O)C(O)(c2c(C)[nH]c3ccccc23)c2ccccc21 (centres undefined)	-0.045 ± 4

SMILES	CD40L-induced NF-kB luciferase activity
COc1ccc2c(c1)[N+](C)(C)C(C)(C)C=C2C	2.14 ± 1.6
COc1ccccc1C(O)c1nccn1C (centres undefined)	-0.914 ± 1.4
CCOC(=O)C1=C[C@]2(CC)CCCN3CCc4c(n1c1ccccc41)[C@@H]32	5.17 ± 1.1
CC1CNCCN1S(=O)(=O)c1cccc2cnccc12 (centres undefined)	-26.1 ± 6.3
COCCn1c(/C=C/c2ccccc2)nc2ccccc21	38.4 ± 2.4
COC1CCCCC1Nc1ccc(C)c(C)c1 (centres undefined)	-3.88 ± 0.6
Cc1cccc(CN2CCN(C(c3ccccc3)c3ccc(Cl)cc3)CC2)c1 (centres undefined)	-3.48 ± 4.7
CN=C1c2cc3cc(OC)ccc3n2CCN1C	5.23 ± 1.7
OC(C#CCN1CCCC1)(c1ccccc1)c1cccnc1 (centres undefined)	-3.23 ± 0.2
C[C@]12CC[C@@H]3c4ccc(O)cc4CC[C@H]3[C@@H]1CCC2=O	2.18 ± 8.7
CC(C)=CCCC(C)CN1CCC(N2CCC(C(=O)N3CCCC3)CC2)CC1 (centres undefined)	-6.46 ± 1.9
COC(=O)c1ccc(NC(=O)C23CCC(C)(C(=O)O2)C3(C)C)cc1 (centres undefined)	-0.16 ± 13
O=C(OCCN1CCCC1)C1(c2ccccc2)CCCC1	-3.46 ± 0.3
COc1ccc(C)cc1S(=O)(=O)Nc1ccc(F)cc1	3.67 ± 1.3
CC(NC(=O)c1ccc(OC2CCN(Cc3ccccn3)CC2)cc1)c1ccccc1 (centres undefined)	2.34 ± 8.1
O=C(/C=C/c1ccc2c(c1)OCO2)NCc1ccc(F)cc1	-2.11 ± 1.8
COc1ccc(-c2cc(C(=O)N3CCOCC3)c3cc(C)ccc3n2)cc1	3.11 ± 4.2
CN1CC2CCCC3(C1)C(=O)NC1(CCCCC1)N=C23 (centres undefined)	0.641 ± 1.3
COc1ccc(-c2c(C)c3ccc(OCC(C)=O)cc3oc2=O)cc1	57.5 ± 2.3
Cc1csc(CCc2nc(C)cs2)n1	-0.696 ± 2
O=C(Oc1ccc2c3c(c(=O)oc2c1)CCCC3)c1ccco1	2.23 ± 1.5
c1cc(-c2ccncc2)ccn1	-5.23 ± 2.5
C(=C\c1ccc2ccccc2n1)/c1ccccc1	-56 ± 3.4

SMILES	CD40L-induced NF-kB luciferase activity
O=C1CCc2cc(OCCCCc3nnnn3C3CCCCC3)ccc2N1	-4.1 ± 7.8
CCS(=O)(=O)CCn1c([N+](=O)[O-])cnc1C	0.625 ± 2.5
COc1cccc(CC2CC(=O)N(c3ccc4c(C)cc(=O)oc4c3)C2=O)c1 (centres undefined)	4.34 ± 4.3
Cc1ccccc1NC(=O)C1c2ccccc2Oc2ccccc21	1.23 ± 0.33
Cc1ccc(C(CC(=O)NCc2ccco2)c2ccc(OC(C)C)cc2)cc1 (centres undefined)	-5.4 ± 2.5
O=C(CN1CC[n+]2c(-c3cccs3)csc21)c1ccc(Br)cc1	0.698 ± 1.9
CCOC(=O)c1c(C)oc2c1C(=O)c1ccccc1C2=O	17.4 ± 14
CC(=O)OC1c2c(ccc3ccc(=O)oc23)OC(C)(C)C1OC(=O)CC(C)C (centres undefined)	-3.56 ± 6.5
Cc1ccc2c(c1)C(C)(C)[C@]1(C)NC(=O)CCN21	3.05 ± 2.2
O=C1c2ccccc2C2(c3ccccc3)NCCN12 (centres undefined)	1.37 ± 7
O=C(CCC(=O)c1cccs1)c1cccs1	2.15 ± 4
CCOCc1cc(C)[nH]c(=O)c1C#N	-0.69 ± 1.2
CC(=O)N1c2ccccc2C(C)=CC1(C)C	2.6 ± 4.1
CC(C)CC1c2[nH]c3ccccc3c2CCN1C(=O)CCC(=O)N(C)C (centres undefined)	2.58 ± 4
CC(=O)[C@H]1CC[C@H]2[C@@H]3C[C@H](C)C4=CC(=O)CC[C@]4(C)[C@H]3[C@@H](O)C[C@]12C	-18 ± 1.2
CCCCNC(=O)NS(=O)(=O)c1ccc(C)cc1	-0.99 ± 6.9
O=C(O)c1cc(-c2ccc(F)cc2F)ccc1O	-4.8 ± 1.6
C[C@]12CC[C@@H]3c4cc(O)c(O)cc4CC[C@H]3[C@@H]1CC[C@@H]2O	0.135 ± 0.014
COC(=O)c1cc(OC)c(OC)c(OC)c1[N+](=O)[O-]	-2.34 ± 0.27
COc1ccc2nc(NC(=O)Nc3ccccc3)sc2c1	39.5 ± 3.5
CNCCC(Oc1ccc(C(F)(F)F)cc1)c1ccccc1 (centres undefined)	1.22 ± 1
Cc1ccc(C(=O)NCCNC(=O)c2ccccc2)cc1	-2.5 ± 3.9
